# The whole screen tested about 310,000 compounds, of which about 2,200 (0.71%) showed an effect of 50% or more. The effect is printed as a negative number. This is one part of the list.
# Biological target: human ether-à-go-go-related gene (hERG) potassium channel (human, UniProt Q12809)
# Experiment: primary screen, population patch clamp on CHO cells stably expressing hERG
# human ether-à-go-go-related gene (hERG) potassium channel, sequence (Q12809 whole entry, looked up): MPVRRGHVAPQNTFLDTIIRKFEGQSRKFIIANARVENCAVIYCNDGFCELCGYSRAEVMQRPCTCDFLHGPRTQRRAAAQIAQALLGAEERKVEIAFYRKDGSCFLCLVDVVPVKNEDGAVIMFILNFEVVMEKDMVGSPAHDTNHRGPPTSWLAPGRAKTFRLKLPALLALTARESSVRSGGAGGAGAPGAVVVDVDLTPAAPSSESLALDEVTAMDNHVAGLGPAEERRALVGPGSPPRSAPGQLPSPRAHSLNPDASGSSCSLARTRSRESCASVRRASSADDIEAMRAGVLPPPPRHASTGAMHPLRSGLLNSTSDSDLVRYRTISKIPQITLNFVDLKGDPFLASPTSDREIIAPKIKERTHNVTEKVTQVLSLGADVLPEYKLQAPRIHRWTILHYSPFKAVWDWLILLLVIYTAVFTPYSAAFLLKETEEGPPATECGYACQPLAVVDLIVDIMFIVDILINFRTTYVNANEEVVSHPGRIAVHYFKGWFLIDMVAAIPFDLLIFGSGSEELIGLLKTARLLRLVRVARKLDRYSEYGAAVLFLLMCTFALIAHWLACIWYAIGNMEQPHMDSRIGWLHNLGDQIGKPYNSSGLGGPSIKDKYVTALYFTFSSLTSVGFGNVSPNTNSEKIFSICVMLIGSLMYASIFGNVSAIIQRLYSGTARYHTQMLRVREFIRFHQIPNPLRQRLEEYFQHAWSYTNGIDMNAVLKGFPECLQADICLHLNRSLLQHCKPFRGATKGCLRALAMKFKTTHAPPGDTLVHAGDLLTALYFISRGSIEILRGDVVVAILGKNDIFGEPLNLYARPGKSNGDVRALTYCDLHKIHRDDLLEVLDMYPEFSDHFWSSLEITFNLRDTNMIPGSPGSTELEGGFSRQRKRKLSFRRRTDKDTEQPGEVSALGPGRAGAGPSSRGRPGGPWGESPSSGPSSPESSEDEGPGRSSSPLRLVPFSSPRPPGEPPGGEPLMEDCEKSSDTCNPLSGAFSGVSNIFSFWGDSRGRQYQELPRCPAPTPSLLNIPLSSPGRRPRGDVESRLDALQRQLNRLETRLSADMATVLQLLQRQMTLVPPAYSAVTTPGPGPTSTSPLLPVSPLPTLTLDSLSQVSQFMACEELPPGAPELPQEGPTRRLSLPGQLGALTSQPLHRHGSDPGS
row,Compound,"hERG current change (%, negative = inhibition) at 1uM [%]"
1,C/C(=N\NC(=O)c1ccccc1O)c1c(O)cc(C)oc1=O,-7.39
2,CN(NC(=O)Nc1ccc(Cl)cc1)c1ncc(C(F)(F)F)cc1Cl,18.2
3,COc1ccc(C(=O)CN2CCN(c3ccc(Cl)cc3)CC2)cc1OC,-4.47
4,C[C@@H](NC(=O)[C@@H]1Cc2ccccc2CN1C(=O)OC(C)(C)C)C(=O)NCC1CCCO1 (some centres unmarked),11.5
5,CC(=O)c1ccc(OCC(O)CN2CCN(c3ccccn3)CC2)cc1.Cl (centres unmarked),-7.47
6,Cc1cc(C2(c3ccc(O)c(C)c3)OC(=O)c3ccccc32)ccc1O,1.18
7,CCC(C)NC(=O)C1CCC(=O)N(c2cc(OC)c(OC)c(OC)c2)C1c1ccc(OC)cc1 (centres unmarked),14.8
8,CSc1ccccc1C(=O)C1CCCN(S(=O)(=O)c2c(C)noc2C)C1 (centres unmarked),7.34
9,COc1ccc(-c2cc3ccccc3oc2=O)cc1NC(=S)NC(=O)c1ccc2c(c1)OCCO2,7.18
10,CN1CCN(C(=O)c2ccccc2NS(=O)(=O)c2ccc(F)cc2)CC1,11.4
11,COc1ccc(-c2ccnc3c(Br)c(C)nn23)cc1,14.8
12,CC(C)NC(=O)COc1ccc2c(c1)C(=O)CC(C)(C)O2,16.3
13,COc1ccc(-c2cc(=O)oc3cc(OCC(=O)NCCN4CCOCC4)ccc23)cc1,8.32
14,O=C(COc1ccc2ccc(=O)oc2c1)NC1CCN(Cc2ccccc2)CC1,-34.1
15,COc1cc(NC(=O)CN2CCN(c3ccccc3F)CC2)cc(OC)c1,7.72
16,O=C(COc1ccc(Cl)cc1[N+](=O)[O-])N1CCCCC1,-2.84
17,O=C1Nc2ccc(S(=O)(=O)N3CCCC3C(=O)O)c3cccc1c23 (centres unmarked),19.5
18,COc1cccc(CN(C)C(=O)C2CCC(=O)N(Cc3cccc(F)c3)C2)c1 (centres unmarked),16.5
19,CCCc1cc(-n2ccnc2C)n2c(nc3ccccc32)c1C#N,6.9
20,O=[N+]([O-])c1cccc(C(=Nc2cccc(Cl)c2)NO)c1,5.8
21,Cc1ccc(NC(=S)c2ccc3ccccc3n2)c(C)c1,19.8
22,CCOc1ccccc1N1C(=O)CC(Sc2ncccc2C(=O)O)C1=O (centres unmarked),16.3

row,Compound,"hERG current change (%, negative = inhibition) at 1uM [%]"
1,COc1cc(O)c(C(CCN2CCOCC2)c2ccc3c(c2)OCO3)c(OC)c1 (centres unmarked),-45.7
2,CC1=Nc2ccc(Br)cc2C(c2ccccc2)N1CC(=O)O (centres unmarked),17.4
3,COC(=O)c1cc2ccccc2n1Cc1ccc(Cl)nc1,12.1
4,O=C(O)CN1C(=O)CC(Cc2ccccc2)C1=O (centres unmarked),13.3
5,CN(C)c1ccc(/C=C2\C(=N)N3C(=NC2=O)Sc2cc(S(C)(=O)=O)ccc23)cc1,14.8
6,O=C1CC(NNc2nc3ccccc3s2)C(=O)N1c1ccccc1 (centres unmarked),7.55
7,O=C(/C=C/c1ccc(Cl)cc1Cl)Nc1cccc(S(=O)(=O)NC2=NCCCCC2)c1,0.0084
8,CC(C)C(NC(=O)c1ccccc1)C(=O)OCc1cc([N+](=O)[O-])cc2c1OCOC2 (centres unmarked),10.2
9,Cl.NCC12CC3CC(C1)CC(c1ccc(Br)cc1)(C3)C2,8.66
10,COC(=O)C1=C(c2ccc(F)cc2F)C[C@@H]2CC[C@H]1N2C(=O)NCc1ccc(C(F)(F)F)cc1,13.4
11,COC(=O)c1nc2cc(C)ccn2c1F,4.83
12,COc1ccc(CCNC(=O)C2CCCN(C(=O)c3ccc(Cl)cc3)C2)cc1 (centres unmarked),9.59
13,COc1ccc(S(=O)(=O)c2ccc(OC)cc2)cc1,-0.753
14,CCCN1C(=O)/C(=C/c2ccco2)SC1=Nc1ccc(OC)cc1,14.5
15,COCc1cc(C)nc(N2CCN(c3ccccc3)CC2)c1C#N,5.99
16,Cc1ccc(C(=O)C(C)OC(=O)CCS(=O)(=O)c2ccc(C)cc2)cc1 (centres unmarked),12.1
17,CCCCSc1nc2ccccc2[nH]1,16
18,COc1ccc(C/C(N)=N/OC(=O)c2ccco2)cc1OC,15.5
19,CCC(C)C(NC(=O)CCC(=O)OCC(=O)[C@@]1(O)CCC2[C@@H]3CCC4=CC(=O)C=C[C@]4(C)C3[C@@H](O)C[C@@]21C)C(=O)O (some centres unmarked),16
20,Cc1cc(NC(=O)C(Cl)(Cl)Cl)no1,13.8
21,CCOc1ccc(CCNC(=O)COC(=O)c2nccnc2N)cc1OCC,10.7
22,CC(=O)c1c(C)[nH]c(C(=O)OCC(=O)NCC(C)C)c1C,4.14

# Reference: paper PMC4336329 (PLoS ONE, 2015)
